Measured values as given in article PMC3605390, “Characterisation of ATP-Dependent Mur Ligases Involved in the Biogenesis of Cell Wall Peptidoglycan in Mycobacterium tuberculosis” (PLoS ONE, 2013).
Like-named read-outs stand apart in the source and are kept apart here. These are yes or no findings as the source states them, for the method shown. Binding seen in cells or lysates may run through a third protein. Some results given as binding are weak or reduced against the parent protein; the word gives no strength. Sequences can lack the tags named with a protein.

By UniProt entry, the sequences of proteins in these tests, tags left out.
UniProt P9WH21: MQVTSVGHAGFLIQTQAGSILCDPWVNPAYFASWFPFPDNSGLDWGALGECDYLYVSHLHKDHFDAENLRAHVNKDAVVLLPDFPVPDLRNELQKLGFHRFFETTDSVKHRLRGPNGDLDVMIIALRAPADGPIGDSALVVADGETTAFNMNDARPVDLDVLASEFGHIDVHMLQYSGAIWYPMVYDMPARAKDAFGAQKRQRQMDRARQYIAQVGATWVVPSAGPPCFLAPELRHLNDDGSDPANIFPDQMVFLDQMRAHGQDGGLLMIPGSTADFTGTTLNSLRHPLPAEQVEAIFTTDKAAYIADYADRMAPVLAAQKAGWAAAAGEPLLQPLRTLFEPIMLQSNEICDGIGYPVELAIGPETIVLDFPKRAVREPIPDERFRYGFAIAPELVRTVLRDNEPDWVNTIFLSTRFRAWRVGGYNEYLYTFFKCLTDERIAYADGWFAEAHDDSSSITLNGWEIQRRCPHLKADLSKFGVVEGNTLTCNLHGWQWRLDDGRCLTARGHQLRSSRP

T1: MurC synthetase (Rv2152c) of Mycobacterium tuberculosis, M-PFC fusion (Mycobacterium tuberculosis H37Rv) (UniProt P9WJL7)
T1 sequence: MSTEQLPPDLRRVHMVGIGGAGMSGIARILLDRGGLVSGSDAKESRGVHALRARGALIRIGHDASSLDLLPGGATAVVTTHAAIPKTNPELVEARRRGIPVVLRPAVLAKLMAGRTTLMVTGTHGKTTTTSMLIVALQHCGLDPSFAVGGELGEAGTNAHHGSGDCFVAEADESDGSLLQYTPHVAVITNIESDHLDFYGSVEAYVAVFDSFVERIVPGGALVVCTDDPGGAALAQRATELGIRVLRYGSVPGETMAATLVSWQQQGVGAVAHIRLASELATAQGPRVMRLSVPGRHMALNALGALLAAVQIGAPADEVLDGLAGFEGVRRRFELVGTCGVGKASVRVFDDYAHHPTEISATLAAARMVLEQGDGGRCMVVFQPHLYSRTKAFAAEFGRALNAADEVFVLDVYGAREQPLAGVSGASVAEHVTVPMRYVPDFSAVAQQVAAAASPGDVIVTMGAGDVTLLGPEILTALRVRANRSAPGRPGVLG

T2: MurD synthetase (Rv2155c) of Mycobacterium tuberculosis, M-PFC fusion (Mycobacterium tuberculosis H37Rv) (UniProt P9WJL5)
T2 sequence: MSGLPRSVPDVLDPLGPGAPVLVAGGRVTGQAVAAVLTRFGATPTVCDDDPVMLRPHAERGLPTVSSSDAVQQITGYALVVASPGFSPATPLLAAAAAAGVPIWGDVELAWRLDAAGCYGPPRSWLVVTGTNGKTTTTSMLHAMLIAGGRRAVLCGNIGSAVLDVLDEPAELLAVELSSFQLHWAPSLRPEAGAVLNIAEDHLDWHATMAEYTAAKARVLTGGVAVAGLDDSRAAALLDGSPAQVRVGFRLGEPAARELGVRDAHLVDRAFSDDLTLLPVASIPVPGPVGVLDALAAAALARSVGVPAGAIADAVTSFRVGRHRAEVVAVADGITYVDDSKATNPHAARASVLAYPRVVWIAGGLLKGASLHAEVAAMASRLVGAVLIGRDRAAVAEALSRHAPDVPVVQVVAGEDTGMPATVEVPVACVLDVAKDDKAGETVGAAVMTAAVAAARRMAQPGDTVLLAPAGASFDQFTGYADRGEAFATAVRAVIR

T3: MurE synthetase (Rv2158c) of Mycobacterium tuberculosis, M-PFC fusion (Mycobacterium tuberculosis H37Rv) (UniProt P9WJL3)
T3 sequence: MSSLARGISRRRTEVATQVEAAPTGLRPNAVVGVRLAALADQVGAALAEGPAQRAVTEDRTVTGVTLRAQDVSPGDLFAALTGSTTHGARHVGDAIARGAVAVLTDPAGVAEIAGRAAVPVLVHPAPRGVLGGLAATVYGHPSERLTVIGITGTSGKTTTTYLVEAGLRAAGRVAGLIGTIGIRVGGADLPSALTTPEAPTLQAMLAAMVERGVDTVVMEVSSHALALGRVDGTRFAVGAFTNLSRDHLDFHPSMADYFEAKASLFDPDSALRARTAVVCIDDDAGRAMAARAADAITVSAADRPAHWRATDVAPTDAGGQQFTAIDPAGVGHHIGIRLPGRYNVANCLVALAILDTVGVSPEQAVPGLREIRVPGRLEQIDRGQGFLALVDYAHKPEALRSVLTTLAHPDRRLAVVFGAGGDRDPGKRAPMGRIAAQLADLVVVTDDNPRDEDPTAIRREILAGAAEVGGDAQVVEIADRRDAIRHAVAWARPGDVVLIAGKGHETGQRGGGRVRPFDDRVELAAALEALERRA

T4: MurF synthetase (Rv2157c) of Mycobacterium tuberculosis, M-PFC fusion (Mycobacterium tuberculosis H37Rv) (UniProt P9WJL1)
T4 sequence: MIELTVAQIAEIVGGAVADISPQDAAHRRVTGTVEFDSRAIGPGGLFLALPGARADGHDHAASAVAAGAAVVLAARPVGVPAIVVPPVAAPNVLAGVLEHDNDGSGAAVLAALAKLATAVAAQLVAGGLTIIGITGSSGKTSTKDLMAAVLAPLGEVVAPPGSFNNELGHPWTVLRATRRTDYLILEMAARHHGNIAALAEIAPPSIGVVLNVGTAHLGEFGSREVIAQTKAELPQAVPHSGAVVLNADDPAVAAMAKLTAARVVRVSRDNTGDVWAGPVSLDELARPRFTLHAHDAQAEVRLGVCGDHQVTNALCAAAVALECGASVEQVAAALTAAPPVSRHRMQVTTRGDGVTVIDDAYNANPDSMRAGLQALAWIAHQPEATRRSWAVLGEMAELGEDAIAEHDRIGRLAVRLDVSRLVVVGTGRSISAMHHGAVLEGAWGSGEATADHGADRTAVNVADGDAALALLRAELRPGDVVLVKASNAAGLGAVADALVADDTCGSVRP


Columns and labels:
Test in all cases: split reporter
[1] = molecular target: T1, MurC synthetase (Rv2152c) of Mycobacterium tuberculosis, M-PFC fusion (Mycobacterium tuberculosis H37Rv)
[2] = molecular target: T2, MurD synthetase (Rv2155c) of Mycobacterium tuberculosis, M-PFC fusion (Mycobacterium tuberculosis H37Rv)
[3] = molecular target: T3, MurE synthetase (Rv2158c) of Mycobacterium tuberculosis, M-PFC fusion (Mycobacterium tuberculosis H37Rv)
[4] = molecular target: T4, MurF synthetase (Rv2157c) of Mycobacterium tuberculosis, M-PFC fusion (Mycobacterium tuberculosis H37Rv)
[5] = molecular target: T1, MurC synthetase (Rv2152c) of Mycobacterium tuberculosis, M-PFC fusion (Mycobacterium tuberculosis H37Rv); remark: listed apart in the source
[6] = molecular target: T2, MurD synthetase (Rv2155c) of Mycobacterium tuberculosis, M-PFC fusion (Mycobacterium tuberculosis H37Rv); remark: listed apart in the source
[7] = molecular target: T3, MurE synthetase (Rv2158c) of Mycobacterium tuberculosis, M-PFC fusion (Mycobacterium tuberculosis H37Rv); remark: listed apart in the source
[8] = molecular target: T4, MurF synthetase (Rv2157c) of Mycobacterium tuberculosis, M-PFC fusion (Mycobacterium tuberculosis H37Rv); remark: listed apart in the source

Row | Molecule | binding [1] | binding [2] | binding [3] | binding [4] | binding [5] | binding [6] | binding [7] | binding [8]
1 | product of Rv3818 (namH homologue) of Mycobacterium tuberculosis, M-PFC fusion (from UniProt P9WH21 1-516) (enzyme) | no binding | no binding | no binding | binds |  |  |  | 
2 | Ser/Thr protein kinase PknA (Rv0015c) of Mycobacterium tuberculosis, M-PFC fusion (enzyme, UniProt P9WI83 1-431) MSPRVGVTLSGRYRLQRLIATGGMGQVWEAVDNRLGRRVAVKVLKSEFSSDPEFIERFRAEARTTAMLNHPGIASVHDYGESQMNGEGRTAYLVMELVNGEPLNSVLKRTGRLSLRHALDMLEQTGRALQIAHAAGLVHRDVKPGNILITPTGQVKITDFGIAKAVDAAPVTQTGMVMGTAQYIAPEQALGHDASPASDVYSLGVVGYEAVSGKRPFAGDGALTVAMKHIKEPPPPLPPDLPPNVRELIEITLVKNPAMRYRSGGPFADAVAAVRAGRRPPRPSQTPPPGRAAPAAIPSGTTARVAANSAGRTAASRRSRPATGGHRPPRRTFSSGQRALLWAAGVLGALAIIIAVLLVIKAPGDNSPQQAPTPTVTTTGNPPASNTGGTDASPRLNWTERGETRHSGLQSWVVPPTPHSRASLARYEIAQ |  |  |  |  | binds | binds | binds | binds
3 | glutamate racemase (MurI, Rv1338) of Mycobacterium tuberculosis, M-PFC fusion (enzyme, UniProt P9WPW9 1-271) MNSPLAPVGVFDSGVGGLTVARAIIDQLPDEDIVYVGDTGNGPYGPLTIPEIRAHALAIGDDLVGRGVKALVIACNSASSACLRDARERYQVPVVEVILPAVRRAVAATRNGRIGVIGTRATITSHAYQDAFAAARDTEITAVACPRFVDFVERGVTSGRQVLGLAQGYLEPLQRAEVDTLVLGCTHYPLLSGLIQLAMGENVTLVSSAEETAKEVVRVLTEIDLLRPHDAPPATRIFEATGDPEAFTKLAARFLGPVLGGVQPVHPSRIH |  |  |  |  | no binding | binds | no binding | no binding
4 | diaminopimelate epimerase (DapF, Rv2726c) of Mycobacterium tuberculosis, M-PFC fusion (enzyme, UniProt P9WP19 1-289) MIFAKGHGTQNDFVLLPDVDAELVLTAARVAALCDRRKGLGADGVLRVTTAGAAQAVGVLDSLPEGVRVTDWYMDYRNADGSAAQMCGNGVRVFAHYLRASGLEVRDEFVVGSLAGPRPVTCHHVEAAYADVSVDMGKANRLGAGEAVVGGRRFHGLAVDVGNPHLACVDSQLTVDGLAALDVGAPVSFDGAQFPDGVNVEVLTAPVDGAVWMRVHERGVGETRSCGTGTVAAAVAALAAVGSPTGTLTVHVPGGEVVVTVTDATSFLRGPSVLVARGDLADDWWNAMG |  |  |  |  | no binding | no binding | binds | no binding
5 | Ser/Thr protein kinase PknB (Rv0014c) of Mycobacterium tuberculosis, M-PFC fusion (enzyme, UniProt P9WI81 1-626) MTTPSHLSDRYELGEILGFGGMSEVHLARDLRLHRDVAVKVLRADLARDPSFYLRFRREAQNAAALNHPAIVAVYDTGEAETPAGPLPYIVMEYVDGVTLRDIVHTEGPMTPKRAIEVIADACQALNFSHQNGIIHRDVKPANIMISATNAVKVMDFGIARAIADSGNSVTQTAAVIGTAQYLSPEQARGDSVDARSDVYSLGCVLYEVLTGEPPFTGDSPVSVAYQHVREDPIPPSARHEGLSADLDAVVLKALAKNPENRYQTAAEMRADLVRVHNGEPPEAPKVLTDAERTSLLSSAAGNLSGPRTDPLPRQDLDDTDRDRSIGSVGRWVAVVAVLAVLTVVVTIAINTFGGITRDVQVPDVRGQSSADAIATLQNRGFKIRTLQKPDSTIPPDHVIGTDPAANTSVSAGDEITVNVSTGPEQREIPDVSTLTYAEAVKKLTAAGFGRFKQANSPSTPELVGKVIGTNPPANQTSAITNVVIIIVGSGPATKDIPDVAGQTVDVAQKNLNVYGFTKFSQASVDSPRPAGEVTGTNPPAGTTVPVDSVIELQVSKGNQFVMPDLSGMFWVDAEPRLRALGWTGMLDKGADVDAGGSQHNRVVYQNPPAGTGVNRDGIITLRFGQ |  |  |  |  | binds | binds | binds | binds
6 | MurF synthetase (Rv2157c) of Mycobacterium tuberculosis, M-PFC fusion (enzyme, UniProt P9WJL1 1-510) MIELTVAQIAEIVGGAVADISPQDAAHRRVTGTVEFDSRAIGPGGLFLALPGARADGHDHAASAVAAGAAVVLAARPVGVPAIVVPPVAAPNVLAGVLEHDNDGSGAAVLAALAKLATAVAAQLVAGGLTIIGITGSSGKTSTKDLMAAVLAPLGEVVAPPGSFNNELGHPWTVLRATRRTDYLILEMAARHHGNIAALAEIAPPSIGVVLNVGTAHLGEFGSREVIAQTKAELPQAVPHSGAVVLNADDPAVAAMAKLTAARVVRVSRDNTGDVWAGPVSLDELARPRFTLHAHDAQAEVRLGVCGDHQVTNALCAAAVALECGASVEQVAAALTAAPPVSRHRMQVTTRGDGVTVIDDAYNANPDSMRAGLQALAWIAHQPEATRRSWAVLGEMAELGEDAIAEHDRIGRLAVRLDVSRLVVVGTGRSISAMHHGAVLEGAWGSGEATADHGADRTAVNVADGDAALALLRAELRPGDVVLVKASNAAGLGAVADALVADDTCGSVRP |  |  |  |  | no binding | no binding | no binding | 
7 | MurD synthetase (Rv2155c) of Mycobacterium tuberculosis, M-PFC fusion (enzyme, UniProt P9WJL5 1-496) MSGLPRSVPDVLDPLGPGAPVLVAGGRVTGQAVAAVLTRFGATPTVCDDDPVMLRPHAERGLPTVSSSDAVQQITGYALVVASPGFSPATPLLAAAAAAGVPIWGDVELAWRLDAAGCYGPPRSWLVVTGTNGKTTTTSMLHAMLIAGGRRAVLCGNIGSAVLDVLDEPAELLAVELSSFQLHWAPSLRPEAGAVLNIAEDHLDWHATMAEYTAAKARVLTGGVAVAGLDDSRAAALLDGSPAQVRVGFRLGEPAARELGVRDAHLVDRAFSDDLTLLPVASIPVPGPVGVLDALAAAALARSVGVPAGAIADAVTSFRVGRHRAEVVAVADGITYVDDSKATNPHAARASVLAYPRVVWIAGGLLKGASLHAEVAAMASRLVGAVLIGRDRAAVAEALSRHAPDVPVVQVVAGEDTGMPATVEVPVACVLDVAKDDKAGETVGAAVMTAAVAAARRMAQPGDTVLLAPAGASFDQFTGYADRGEAFATAVRAVIR |  |  |  |  | no binding |  |  | 
8 | MurE synthetase (Rv2158c) of Mycobacterium tuberculosis, M-PFC fusion (enzyme, UniProt P9WJL3 1-535) MSSLARGISRRRTEVATQVEAAPTGLRPNAVVGVRLAALADQVGAALAEGPAQRAVTEDRTVTGVTLRAQDVSPGDLFAALTGSTTHGARHVGDAIARGAVAVLTDPAGVAEIAGRAAVPVLVHPAPRGVLGGLAATVYGHPSERLTVIGITGTSGKTTTTYLVEAGLRAAGRVAGLIGTIGIRVGGADLPSALTTPEAPTLQAMLAAMVERGVDTVVMEVSSHALALGRVDGTRFAVGAFTNLSRDHLDFHPSMADYFEAKASLFDPDSALRARTAVVCIDDDAGRAMAARAADAITVSAADRPAHWRATDVAPTDAGGQQFTAIDPAGVGHHIGIRLPGRYNVANCLVALAILDTVGVSPEQAVPGLREIRVPGRLEQIDRGQGFLALVDYAHKPEALRSVLTTLAHPDRRLAVVFGAGGDRDPGKRAPMGRIAAQLADLVVVTDDNPRDEDPTAIRREILAGAAEVGGDAQVVEIADRRDAIRHAVAWARPGDVVLIAGKGHETGQRGGGRVRPFDDRVELAAALEALERRA |  |  |  |  | no binding | no binding |  | 
